# Test results reported in ChEMBL document CHEMBL1157539, “Thousands of chemical starting points for antimalarial lead identification” (Nature, 2010).
# In all, about 13,000 compounds were measured (“IFI”: median about 4, highest 2% from about 17 on). Some of the results follow.
# Experiment: GSK_TCMDC: Inhibition Frequency Index (IFI). The number of non-kinase HTS assays where a compound showed > 50 % inhibition, expressed as a percentage of the number of such assays in which the compound was tested (-0 is zero)
# Format: functional
row,Structure (SMILES),IFI [%]
1,CC(C)Cc1nc(N2CCOCC2)c2nnn(Cc3ccccc3)c2n1,1.75
2,COC(=O)C1(NC(=O)c2ccc(-n3nc(C)c(-c4ccccc4)c3N)cc2)CCCC1,1.41
3,CNC(=O)NC1=NC(C)(C)N(OCc2ccc(Cl)c(Cl)c2)C(NC(=O)NC)=N1,0.72
4,O=C(NC1CC1)c1ccc(N2CCC(COc3cccc(F)c3)CC2)nc1,6.12
5,OC(c1cccc2ccccc12)C1CN(CCc2ccccc2)CCC1(O)c1ccccc1 (stereo not given),1.69
6,CC1(C)N=C(N)N=C(N)N1c1cccc(I)c1,0.68
7,O=C(c1ccc(-c2ccc(-c3nc4cc(F)ccc4[nH]3)cc2)cc1)N1CCCCC1CN1CCC(O)C1 (stereo not given),3.54
8,CC(=O)c1cccc(Nc2nc3ccc(OCc4cc(Cl)cc(Cl)c4)c(C#N)c3[nH]2)c1,1.61
9,O=C(Nc1ccc(-c2cccc(-c3nc4cc(F)ccc4[nH]3)c2)cc1)Nc1ccc(Cl)c(Cl)c1,8.08
10,Cc1noc(C)c1-c1cccc(CNCc2ccc(-c3ccc(-c4nc5ccccc5[nH]4)s3)cc2)c1,8.82
11,c1ccc(CNc2cc(-c3ccccn3)nc(-c3ccccn3)n2)cc1,15.5
12,Cc1cc(NC(=O)Nc2ccc3nccc(N4CCN(C)CC4)c3c2)ccc1Br,3.68
13,COc1cccc(-c2cnc(N)c(-c3nc4ccc(C(F)(F)F)cc4[nH]3)c2)c1,3.77
14,CN(C)CCCNCc1ccc(-c2ccc(C(F)(F)F)cc2)cc1,3.6
15,Cc1nc(N)nc(N)c1CCCOc1cccc(Cl)c1,0.73
16,COc1ccc(-c2nonc2NC(=O)c2ccc(C(C)(C)C)cc2)cc1OC,3
17,Cc1cc2c(NC(=O)NC3CCN(CCc4cccc(Cl)c4)CC3)cccc2cn1,2.19
18,CCN(CC)CCN(Cc1ccc(-c2ccc(C(F)(F)F)cc2)cc1)C(=O)Cn1c(CCc2cccc(F)c2F)nc(=O)c2ccc(C)cc21,7.14
19,COc1ccc2ccc(F)c(CCN3CCC(NCc4cc5c(cn4)OCCO5)CC3)c2n1,1.96
20,COc1cc(C(=O)Nc2cccc(-c3nc4ccccc4[nH]3)c2)ccc1OC(C)=O,2.84
21,CCCCCCCN(Cc1ccc(OC(C)(C)C(=O)OCC)cc1)C(=O)Nc1ccc(Cl)cc1OCC,-0
22,NC(=O)c1ccc(NC(=O)CN(Cc2ccc(Cl)cc2)S(=O)(=O)c2ccccc2)cc1,0.93
23,CN1CCCC(CN2CCN(Cc3cccc(-c4ccc(-c5nc6ccccc6[nH]5)cc4)c3)CC2)C1 (stereo not given),7.04

row,Structure (SMILES),IFI [%]
1,O=C(NCc1ccc(Cl)c(Cl)c1)c1ccc(-c2nc3ccc(F)cc3[nH]2)cc1,-0
2,CCOC(=O)c1cccc(NC(=N)Nc2nc(C)cc(NCCc3ccccc3)n2)c1,5.52
3,Cn1nc(-c2ccc(CNC3CCc4ccccc43)cc2)c2cnc(NCCN3CCCC3)nc21 (stereo not given),3.85
4,O=C(Nc1cccc(CN2CCCN(Cc3ccc(F)cc3)CC2)c1)c1cc2ccccc2s1,4.58
5,COc1cc(OC)c(OC)cc1C=NN=c1cc(C)[nH]c2ccccc12,2.11
6,O=S(=O)(c1cc(Cl)ccc1Cl)N1CCCCC(c2ccc(C(F)(F)F)cc2)=N1,0
7,Oc1ccc(CCNc2nc(NCc3ccccc3-c3ccc(C(F)(F)F)cc3)nc(N3CCCNCC3)n2)cc1,14.9
8,O=C(CCCCCNC(=O)c1ccc(O)c(-c2ccc(Cl)c(Cl)c2)c1)NCCN1CCCC1,0.74
9,CC(C)CCNC(=O)C1Cc2c([nH]c3cc(Br)ccc23)C2(CCN(Cc3ccccc3)CC2)N1 (stereo not given),2.17
10,COc1ccccc1C1CCN(C2CCC(NC(=O)/C=C/c3cccc(C(F)(F)F)c3)CC2)CC1 (stereo not given),15.4
11,COc1ccccc1C1CC(c2ccc(Br)cc2)=NN1C(=O)c1ccccc1 (stereo not given),2
12,COc1cc(NCCCCNc2ccc(Cl)c(Cl)c2)nc2ccccc12,26.5
13,COc1ccc(Br)cc1/C=C/C(=O)Nc1ccc(C2CCN(C)CC2)cc1,3.45
14,COc1ccc2nc3cc(Cl)ccc3c(NCCCN3CCNCC3)c2c1,4.44
15,CC(CCc1ccccc1)NCC(O)c1cccc(C(F)(F)F)c1 (stereo not given),2.82
16,CCOc1ccc2[nH]c(C)cc(=NN=Cc3ccccc3F)c2c1,1.52
17,CCOc1cc(O)c(-c2nc(N)ncc2-c2ccc3c(c2)OCCO3)cc1CC,4.23
18,Cc1ccc(O)c(Nc2c3c(c(C#N)c4nc5ccccc5n24)CCC3)c1,2.99
19,CCCCCCNCCOc1ccc(-c2nc(-c3ccccc3)c(-c3ccccc3)[nH]2)cc1,8.57
20,O=C(/C=C/c1ccc(Cl)c(Cl)c1)NCCCCCN1CCCN(C(=O)Nc2cccc(Cl)c2)CC1,5.37
21,CC(=O)Nc1cccc(C(=O)Nc2cccc(-c3ccc(-c4nc5cc(F)ccc5[nH]4)cc3)c2)c1,5.26
22,COc1ccc2cc(-c3nc(-c4c(Cl)cccc4Cl)[nH]c3-c3ccnc(NCCCN4CCN(C)CC4)c3)ccc2c1,7.14
23,CC(C)CNCc1ccc(-c2cccc(CN(CCCN3CCN(C)CC3)C(=O)/C=C/c3ccccc3)c2)cc1,8.09

row,Structure (SMILES),IFI [%]
1,Cc1cccc2nc(-c3cccc(-c4cccc(C(=O)NCc5nccn5C)c4)c3)[nH]c12,2.75
2,CCCCCN1CCCN(Cc2cccc(NC(=O)c3cc4ccccc4s3)c2)CC1,6.82
3,O=C(Nc1ccc(Cn2nc(Cl)c(N3CCCNCC3)cc2=O)cc1)c1ccc(-c2ccccc2)cc1,10.2
4,Cc1ccc(Nc2nc(NN=Cc3ccc(-c4ccc([N+](=O)[O-])cc4)o3)nc(N3CCOCC3)n2)cc1Cl,0.75
5,CO/C(=C\C=C\c1cc2cc(Cl)c(Cl)cc2[nH]1)C(=O)NCCCN1CCN(C2CCCCC2)CC1,11.5
6,Cc1cccc(CNc2nc(C)cc(N[C@@H](Cc3ccccc3)C(=O)NCCc3ccccc3)n2)c1,14.3
7,CCCCCCCCN1CCN(CCCCCCNc2c3ccccc3nc3ccccc23)CC1,13.5
8,COc1cc(C2=NN(S(=O)(=O)c3c(Cl)cc(Cl)cc3Cl)CCCC2)ccc1Cl,2.16
9,CCCCCCCCCCN1C(=O)C2C(CCCCNC(C)=O)NC3(C(=O)N(Cc4ccc(C(C)(C)C)cc4)c4ccccc43)C2C1=O (stereo not given),2.19
10,COc1ccc2c(c1)[nH]c1c(C=Cc3ccccc3)nccc12,1.45
11,N#Cc1ccc2c(c1)CCN(CCC1CCC(NC(=O)c3cc4ccccc4[nH]3)CC1)CC2 (stereo not given),4.26
12,Cc1ccc(-c2nc(N3CCN(C(=O)c4ccco4)CC3)c3ccccc3n2)cc1,2.5
13,C=C[C@H]1CN(CCCCCCC)CC[C@H]1CC(=O)Nc1cnnc2ccc(OC)cc12,0.75
14,CCCCCCn1c(Sc2ccc(C#N)c([N+](=O)[O-])c2)nnc1-c1ccc(N(C)C)cc1,8.39
15,N=C(N)Nc1ccc(CCc2ccc(NC(=N)N)cc2)cc1,2.26
16,CCOc1ccc(Nc2nc(N)c3ccccc3n2)cc1,4.03
17,Cn1cnc(CCNC(=O)c2cccc(-c3csc(-c4nc5ccccc5[nH]4)c3)c2)c1,4.72
18,CN1CCN(c2ccnc3ccc(NC(=O)Cc4ccc(-c5ccncc5)c5ccccc45)cc23)CC1,5.19
19,O=C(Nc1cccc(F)c1)c1ccc(C(=O)NC2CCN(CC3CCCCC3)C2)cc1 (stereo not given),3.51
20,CS(=O)(=O)N(c1ccccc1)c1cc(C(=O)N[C@@H](Cc2ccccc2)[C@H](O)CNC2CC2)cc(N2CCCC2=O)c1,2.21
21,Cc1cc(C)c(C)c(OCCCON2C(=N)N=C(N)NC2(C)C)c1C,4.23
22,CCn1ncc2c(N3CCCC3=O)cc(C(=O)N[C@@H](Cc3ccccc3)[C@H](O)CNC(C)(C)c3cccc(C(F)(F)F)c3)cc21,1.46
23,COc1ccc2c(NCCc3ccccc3)cc(-c3ccccc3)nc2c1,2.17

row,Structure (SMILES),IFI [%]
1,O=c1cc(NCCNCc2cccc(-c3ccccc3)c2)[nH]c2ccccc12,2.96
2,CCOC(=O)C1=C(C)NC2=C(C(=O)CCC2)C1c1cn(Cc2ccc(Cl)cc2Cl)nc1-c1ccccc1 (stereo not given),1.75
3,O=C(NCCc1ccccc1F)c1ccc(N2CCN(c3ccncc3)CC2)cn1,6.9
4,CCCN1CCC(NCc2cn(C)nc2-c2ccc(Oc3ccccc3)cc2)CC1,13.6
5,O=C(Cn1c(CCc2cccc(F)c2F)cc(=O)c2ccccc21)N(Cc1ccc(-c2ccc(C(F)(F)F)cc2)cc1)C1CCN(CCO)CC1,8.09
6,COc1ccccc1/C=C/C(=O)N(C)C1CCN(CCCCCNC(=O)/C=C/c2ccc(Cl)c(Cl)c2)C1 (stereo not given),5.84
7,Nc1nc(-c2ccccn2)nc(-n2nc(-c3cccc(C(F)(F)F)c3)cc2N)n1,7.46
8,Oc1ccc2ncnc(Nc3ccc(OCc4cccc(F)c4)c(Cl)c3)c2c1,2.94
9,Cc1cc(CN2C(=O)C(c3ccccc3)(c3ccccc3)N=C2N)c(C(F)(F)F)o1,3.51
10,CCCC1N=C(N)N=C(N)N1c1ccc(C)c(C)c1 (stereo not given),0
11,COc1cc(Cc2cnc(N)nc2N)ccc1OCc1ccc(NC(C)=O)cc1,0.93
12,Cc1cccc2nc(-c3ccc(-c4ccc(CN5CCN(c6ccc(C#N)cn6)CC5)cc4)s3)[nH]c12,1.98
13,CCC(C(=O)Nc1cc(=O)[nH]c2nc(-c3ccco3)nn12)c1ccccc1 (stereo not given),4.35
14,Cc1ccc(-c2noc(=O)n2CC(=O)Nc2ccccc2-c2ccccc2)cc1,0.75
15,COc1ccc2ncc(F)c(CCN3CC(O)C(CNCc4ccc5c(c4)OCCO5)C3)c2n1 (stereo not given),2.94
16,CC1Cc2ccccc2N1S(=O)(=O)c1cccc(C(=O)Nc2nc(-c3ccccn3)cs2)c1 (stereo not given),10.6
17,N#Cc1cccc(C(=O)Nc2ccc(-c3cccc(CN4CCC(O)CC4)c3)cc2)c1,0
18,COc1ccccc1-c1csc(C(=O)NC2CCCCN(Cc3ccc(C(C)(C)C)cc3)C2)c1 (stereo not given),1.96
19,C=CCOc1ccc(-c2c(C)[nH]c(C)c(Br)c2=O)cc1,0.93
20,O=C(/C=C/c1ccc(Cl)c(Cl)c1)NCCCCCCN1CCN(C(=O)Nc2cc(Cl)nc(Cl)c2)CC1,3.17
21,N#Cc1ccc2c(c1)CCN(CCCn1c(-c3ccc4ccccc4c3)nc3ccncc31)CC2,5.67
